Data published in paper PMC3155546 (PLoS ONE, 2011).
Results are given in words; binding and its absence hold for the method and conditions named. For some of these results: In cells and extracts the contact can be indirect. Some entries that bind do so weakly or less than the wild type.

Tests used:
GST-TPPP1–219 (human) [1] = target: GST-TPPP1–219 (human) (UniProt O94811); experiment: co-IP; […] (5 µM) […], pH 8.0, 4 h; […]; both purified
[2] = target: full-length TPPP expressed in HeLa (pcDNA3.1-TPPP) (human) (UniProt O94811); experiment: co-IP
GST-TPPP1–219 (human) [3] = target: GST-TPPP1–219 (human) (UniProt O94811); experiment: co-IP; both purified
His-PrP90–231 = His-PrP90–231 (UniProt P04156); experiment: pull-down; […] (5 µM, […], pH 8.0; […]; both purified
His-PrP23–231 = His-PrP23–231 (UniProt P04156); experiment: as above
GST-PrP23–231 = GST-PrP23–231 (UniProt P04156); experiment: co-IP; both purified
GST-TPPP50–219 (human) [4] = target: GST-TPPP50–219 (human) (UniProt O94811); experiment: co-IP; […] (5 µM) […], pH 8.0, 4 h; […]; both purified
GST-TPPP100–219 (human) [5] = target: GST-TPPP100–219 (human) (UniProt O94811); experiment: as above
GST-TPPP1–219 (human) [6] = target: GST-TPPP1–219 (human) (UniProt O94811); experiment: pull-down; both purified
GST-TPPP50–219 (human) [7] = target: GST-TPPP50–219 (human) (UniProt O94811); experiment: pull-down; both purified
GST-TPPP100–219 (human) [8] = target: GST-TPPP100–219 (human) (UniProt O94811); experiment: pull-down; both purified
[9] = target: full-length wild-type human PrP (aa 1–253) with five octarepeats (PG5) (human) (UniProt P04156); experiment: co-IP

## His-PrP90–231 (from UniProt P04156 90-231) (domain or fragment)
GST-TPPP1–219 (human) [1]
  binding: binds

## full-length wild-type human PrP (aa 1–253) with five octarepeats (PG5) (from UniProt P04156 23-230)
[2]
  binding: binds

## GST-PrP23–90 (from UniProt P04156 23-90) (domain or fragment)
GST-TPPP1–219 (human) [3]
  binding: no binding (tested: 5 µM)

## GST-TPPP1–219 (from UniProt O94811 1-219)
His-PrP90–231
  binding: binds
His-PrP23–231
  binding: binds
GST-PrP23–231
  binding: binds

## His-PrP23–231 (from UniProt P04156 23-231)
GST-TPPP1–219 (human) [1]
  binding: binds
GST-TPPP50–219 (human) [4]
  binding: binds
GST-TPPP100–219 (human) [5]
  binding: binds
GST-TPPP1–219 (human) [6]
  binding: binds
GST-TPPP50–219 (human) [7]
  binding: binds
GST-TPPP100–219 (human) [8]
  binding: binds

## full-length TPPP expressed in HeLa (pcDNA3.1-TPPP) (from UniProt O94811 1-219)
[9]
  binding: binds
